Several values for one entry are separate records, joined by “and”; a condition that tells them apart may be missing. Equal entries are not always repeated. In all, about 16,000 compounds went through this assay and about 40 (0.2%) were called active. About 1% were inconclusive and are not listed. Calls come from the whole dose curve; as a rule, active = well fitted activation curve with a large enough effect; inconclusive = small, poorly fitted or top-dose-only effect, or another doubt; inactive = no such curve, though single readings can be large or run the other way. This is one part of the list.
% is set by controls: 0 for no effect and ±100 for the full control effect.

In the assay the target is Rap guanine nucleotide exchange factor 4 (Homo sapiens) (UniProt Q8WZA2). Kind of assay: Validation qHTS for agonist of cAMP-regulated guanine nucleotide exchange factor 4 (EPAC2).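 Note: exchange makes BODIPY-GDP fluorescence drop when released from Rap1B; series mostly up to about 150 µM.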 The note with it: EPAC2 Rap1B BODIPY-GDP exchange, fluorescence; activation: stronger effect = higher value. The text has this: Principle Investigator: Xiaodong Cheng Ph.D.
UniProt Q8WZA2, sequence (Q8WZA2 whole entry, looked up): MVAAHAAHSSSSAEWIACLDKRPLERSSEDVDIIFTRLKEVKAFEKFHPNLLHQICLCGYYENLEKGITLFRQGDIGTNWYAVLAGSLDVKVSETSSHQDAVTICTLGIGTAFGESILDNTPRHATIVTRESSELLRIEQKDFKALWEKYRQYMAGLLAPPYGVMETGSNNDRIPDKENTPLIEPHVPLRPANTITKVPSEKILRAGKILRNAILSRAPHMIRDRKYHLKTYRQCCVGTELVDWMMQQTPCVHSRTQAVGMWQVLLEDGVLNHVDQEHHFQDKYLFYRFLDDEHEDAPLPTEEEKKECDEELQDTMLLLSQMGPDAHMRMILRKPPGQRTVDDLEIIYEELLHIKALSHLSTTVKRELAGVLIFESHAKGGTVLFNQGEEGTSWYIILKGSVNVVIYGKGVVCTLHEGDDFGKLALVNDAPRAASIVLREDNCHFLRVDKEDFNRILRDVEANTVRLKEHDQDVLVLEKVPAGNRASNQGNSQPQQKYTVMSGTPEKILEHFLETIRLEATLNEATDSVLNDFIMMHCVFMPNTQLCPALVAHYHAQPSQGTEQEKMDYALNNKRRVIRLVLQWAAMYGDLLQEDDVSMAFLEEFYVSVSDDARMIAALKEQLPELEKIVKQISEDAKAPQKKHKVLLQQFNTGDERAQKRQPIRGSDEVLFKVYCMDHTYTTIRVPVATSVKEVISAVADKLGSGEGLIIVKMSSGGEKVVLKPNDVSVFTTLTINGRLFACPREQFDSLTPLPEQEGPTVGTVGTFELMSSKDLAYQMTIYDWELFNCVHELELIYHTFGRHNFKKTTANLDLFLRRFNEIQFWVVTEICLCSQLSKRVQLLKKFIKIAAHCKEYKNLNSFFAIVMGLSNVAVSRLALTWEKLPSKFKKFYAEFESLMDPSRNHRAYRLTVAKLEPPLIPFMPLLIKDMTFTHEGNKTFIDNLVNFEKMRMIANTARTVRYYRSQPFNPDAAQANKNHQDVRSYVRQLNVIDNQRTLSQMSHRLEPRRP
The University of Texas Medical Branch, […], TX
In multi-cellular eukaryotic organisms, the effects of cAMP are transduced by two ubiquitously-expressed intracellular cAMP receptors, the classic protein kinase A/cAMP-dependent protein kinase (PKA/cAPK) and the more recently discovered exchange protein directly activated by cAMP/cAMP-regulated guanine nucleotide exchange factor (EPAC/cAMP-GEF). Both PKA and EPAC are ubiquitously expressed in all tissues, and an increase in intracellular cAMP levels will lead to the activation of both PKA and EPAC. Therefore, careful dissections of the individual role and relative contribution of EPAC and PKA within the overall cAMP signaling in various model systems are critical for further elucidating the mechanism of cAMP signaling. To date no EPAC-specific antagonists and agonist, as well as isoform-specific agonists have been reported, and developing EPAC-specific pharmacological probes to determine the physiological functions that EPAC play in the overall cAMP-mediated signaling remains a major challenge within the research field. Furthermore, identified regulators of EPAC may lead to new mechanism-based therapeutic strategies specifically targeting the EPAC / cAMP-signaling components as EPAC has been implicated to play important roles in major human pathological conditions such as diabetes, heart disease, and cancer.
This qHTS will be used to screen the Molecular Libraries Small Molecule Repository (MLSMR) as a concentration-titration series using the NCGC unique quantitative screening (qHTS) platform to find activators for EPAC1. In addition, this assay will also be used as a counterscreen for the EPAC2 qHTS. This fluorescent based assay is developed and validated for EPAC1 that measures exchange using EPAC effector Rap1 complex with BODIPY-GDP, a GDP analog with a tethered fluorophores. Activators are identified by monitoring the change in fluorescence signal as the exchanged free BODIPY-GDP has a reduced fluorescence compared to Rap1-bound BODIPY-GDP. Increase in signal (activation) is the desired outcome for the EPAC1 agonist while no activity in this assay is desired for the EPAC2 agonist counterscreen.
[1] de Rooij, J., Zwartkruis, F. J., Verheijen, M. H., Cool, R. H., Nijman, S. M., Wittinghofer, A., and Bos, J.L. (1998) Nature 396, 474-477.
Briefly, three uL of reagents (100 nM EPAC2, 250 nM RAP1B-BODIPY-GDP, 50 uM GDP) were dispensed into a 1536-well Greiner black solid-bottom medium binding assay plate. Controls and test compounds (23 nL) were transferred to the plate via a Kalypsys pin tool equipped with a 1536-pin array. The plates were centrifuged at 1,000 rpm for 15 seconds followed by 5 minute incubation at room temperature. The assay plates were read at 5 minute intervals for 30 minutes in the ViewLux plate reader using 480nm excitation and 540nm emission filters. The results were normalized to the agonist positive control of 6.5 mM cAMP.
For `CC(C)(O)C1CC[C@@]2(C)C3CCC4[C@@]5(C)CCCC(C)(C)C5C(O)C[C@]4(C)[C@]3(C)CC[C@@H]12` (some centres not stated), the activation was inactive: -13.1%.
With `CC(=O)c1c(O)c(C)c(O)c2c1OC1=CC(=O)C(C(C)=O)C(=O)C12C` (configuration not stated), the activation was inactive: -15.7%.
On to `COc1ccc(-c2nc3cnc(OC)nc3n(C3CC3)c2=O)cc1`, for which the activation is inactive: -12.8%.
As for H-RKDVY-OH, the figure is inactive: -19.4%; as for `O=c1cnc2cnc(N3CCNCC3)nc2n1C1CC1`, inactive: -8.96%.
Regarding `C[C@]12CC[C@@H]3c4ccc(O)cc4CC[C@H]3[C@@H]1CCC2=O`, the activation is inactive: -11.6% and inactive: -10.8% and inactive: -12.6%.
As to `CCOC(=O)C1=C[C@]2(CC)CCCN3CCc4c(n1c1ccccc41)[C@@H]32`, the activation is inactive: 1.02% and inactive: -9.68% and inactive: -20.9%.
Consider `Cc1ccc(S[C@@H](CCN2CC[C@H](O)CCC2=O)c2ccccc2)cc1`, for which the activation was inactive: -17.7%.
As for `CC1=C2C(O)C(=O)OC3CC4C(C)(C)C(=O)C=C[C@]4(C)C(CC1)[C@@]23C` (some centres not stated), the figure is inactive: 1.63%.
`COc1ccc(-c2nc3cnc(N(C)C)nc3n(Cc3cccs3)c2=O)cc1`: the activation is inactive: -3.88%.
Turning to `CC(=O)c1cc2c(cc1O)OC(C)(C)C=C2`, the activation is inactive: -19.1%.
With `CC1CN(S(=O)(=O)c2cccc3cnccc23)CCN1` (configuration not stated), the activation is inactive: -27.9%.
Under `COc1ccc(CN2[C@@H](CC(=O)O)c3ccc(/C=C/C(=O)O)cc3S2(=O)=O)cc1` stands inactive: 0.479%; under `CC(=O)OCC(=O)[C@@]1(O)CC[C@H]2[C@@H]3C[C@H](C)C4=CC(=O)C=C[C@]4(C)[C@H]3[C@@H](O)C[C@@]21C`, inactive: -15.1%.
As to `COc1ccc(C(=O)N2CCN(CC(=O)N3CCOCC3)CC2)cc1`, the activation is inactive: -3.65%.
As for `Cc1ccccc1CN1[C@@H](CC2CCCCC2)COCCS1(=O)=O`, the activation was inactive: -34.6%.
For `Cc1cc(C(=O)NCC2CCC3(CCN(Cc4cccc(F)c4F)CC3)O2)n(C)n1` (configuration not stated), the activation was inactive: -8.25%.
Under `CNc1ccnc(-c2c(C)noc2C)n1` stands inactive: -10.9%.
Turning to `COc1ccc(C2CC(=O)c3c(O)cc(O)cc3O2)cc1O` (configuration not stated), the activation is inactive: -16.7%.
As for `Cc1noc(C)c1-c1nccc(NCc2cccs2)n1`, the figure is inactive: -17.6%; as for `CCCCC/C=C\C\C=C/C=C/C=C/[C@@H](SC[C@H](NC(=O)CC[C@H](N)C(=O)O)C(=O)NCC(=O)O)[C@@H](O)CCCC(=O)O`, inactive: 3.5%.
With `CCOc1ccc(S(=O)(=O)O)c2cccnc12`, the activation is inactive: -35.6%.
As to `CCCCCCCCCCCCCC[N+](C)(C)Cc1ccccc1`, the activation was inactive: -7.52%.
For the compound `CC(=O)Nc1ccccc1-c1nc(CNC(=O)c2cccc(F)c2)c(C)o1`, the activation is inactive: -2.86%.
Under `CCOC(OCC)P(=O)(O)CCCNCc1ccc(Cl)c(Cl)c1` stands inactive: -12.6% and inactive: -16.7%; under `Cc1cccc(CN2CCN(C(c3ccccc3)c3ccc(Cl)cc3)CC2)c1` (configuration not stated), inactive: -10.6% and inactive: -7.08%.
Consider `Cc1cc(C)cc(C(=O)NCc2nc(-c3cccc(NC(=O)c4ccccn4)c3)oc2C)c1`, for which the activation was inactive: -7.85%.
As for `Cn1cc(-c2nc3cncnc3n(CCN)c2=O)c2ccccc21`, the activation is inactive: -24.6%.
Turning to `CC(C)=CCC/C(C)=C/COc1c2occc2cc2ccc(=O)oc12`, the activation is inactive: 2.48%.
Turning to `COc1cnc(NS(=O)(=O)c2ccc(N)cc2)nc1`, the activation was inactive: -13.7% and inactive: -13.5%.
Consider `CCCCNC(=O)O[C@@H]1C[C@@H]2CCN3C(=O)CCC[C@H]([C@H]1CC)[C@H]23`, for which the activation was inactive: -12.6%.
Consider `N#CC(C#N)=C(N)/C(C#N)=C/c1ccc2[nH]ccc2c1`, for which the activation was inactive: -2.19% and inactive: -0.836%.
Under `O=C1C2C=CC=CC2=NC(=S)N1CCN1CCC(=C(c2ccc(F)cc2)c2ccc(F)cc2)CC1` (configuration not stated) stands inactive: -40.9%.
On to `Cc1ncsc1CCC(=O)N1CCCC(c2nc(-c3ccncc3)ncc2-c2ccccc2)C1` (configuration not stated), for which the activation is inactive: -5.71%.
Take `O=C(O)CCC(=O)Nc1ccc(S(=O)(=O)Nc2nccs2)cc1`: the activation is inactive: 6.21% and inactive: -5.26%.
Under `O=C(c1ccncc1)N1CCC2(CC1)CCN(c1ccncc1)CC2` stands inactive: 7.86%; under `COc1ccc(C(=O)C[n+]2cccc(Br)c2)cc1`, inactive: -13.8%.
Regarding `O=NN(CCCl)C(=O)NC1CCCCC1`, the activation is inactive: -10.6%.
Take `O=C(O)Cc1cn(-c2ccccc2)nc1-c1ccc(Cl)cc1`: the activation is inactive: -13%.
As for `COc1ccccc1O`, the activation was inactive: -1.02% and inactive: 18.3%.
Take `CC1CNCCN1S(=O)(=O)c1cccc2cnccc12` (configuration not stated): the activation was inactive: 3.54% and inactive: -3.18% and inactive: -30.1%.
Turning to `CCCC1([C@H](O)C/C=C/[C@H]2[C@H](O)CC(=O)[C@@H]2CCCCCCC(=O)OC)CCC1`, the activation was inactive: -44.2%.
As to `CNCCC(Oc1ccccc1OC)c1ccccc1` (configuration not stated), the activation is inactive: -0.977% and inactive: -17.3%.
`C[C@@H]1[C@H](c2ccccc2)OCCS(=O)(=O)N1Cc1ccc(Cl)cc1`: the activation was inactive: -19.2%.
Regarding `N#CCCn1c(=O)c(-c2ccc(F)cc2)nc2cnc(Oc3cccc(Cl)c3)nc21`, the activation was inactive: -0.68%.
As for `Oc1cc(-c2nc3ccccc3s2)cc2c1OCCN(Cc1cccn1-c1nccs1)C2`, the figure is inactive: -12%; as for `Nc1ncnc2c1ncn2[C@@H]1O[C@H](COP(=O)(O)OP(=O)(O)CP(=O)(O)O)[C@@H](O)[C@H]1O`, inactive: 5.76%.
As for `CC1(C)S[C@@H]2[C@H](NC(=O)[C@H](NC(=O)N3CCN(S(C)(=O)=O)C3=O)c3ccccc3)C(=O)N2[C@H]1C(=O)O`, the activation is inactive: 2.38%.
Under `CN(C(=O)CO)c1c(I)c(C(=O)NCC(O)CO)c(I)c(C(=O)NCC(O)CO)c1I` (configuration not stated) stands inactive: -5.67%.
As for `CN1CCN(c2ncnc3ccc(-c4ccc(C(=O)N(C)C)cc4)cc23)CC1`, the figure is inactive: -8.61%; as for `CC(=O)N(Cc1ccc2c(c1)OCO2)Cc1cc2ccc(C)cc2nc1-c1cccc(C)c1`, inactive: 0.779%.
For `CN1CCN(c2nc(-c3ccccc3C(F)(F)F)nc3ccccc23)CC1`, the activation was inactive: -6.56%.

(Values after PubChem BioAssay AID1645887 (National Center for Advancing Translational Sciences (NCATS), 2021).)
